Laboratory results taken from PubChem BioAssay AID1347428 (National Center for Advancing Translational Sciences (NCATS), 2020).
Screen size: about 91,000 compounds; about 290 (0.32%) were called active. The shares of active, inactive and inconclusive entries below differ from those in the screen. Calls follow the shape of the dose curve; as a rule, active = well fitted inhibition curve with a large enough effect; inconclusive = small, poorly fitted or top-dose-only effect; inactive = no such curve, though single readings can be large or run the other way. Potencies beside an inconclusive call are fits to weak or partial responses and may not hold up.

target: Single-stranded DNA cytosine deaminase (Homo sapiens) (UniProt Q9GZX7); assay: Primary qHTS assay for inhibitors of Activation Induced Cytidine Deaminase (AID): AID signal; settings: AID deamination FRET fluorescence, UDG-coupled, 4 h; series mostly up to 115 µM; also: nearly all actives have a fitted effect of over 25% in size
Sequence of UniProt Q9GZX7 (Q9GZX7 whole entry, looked up): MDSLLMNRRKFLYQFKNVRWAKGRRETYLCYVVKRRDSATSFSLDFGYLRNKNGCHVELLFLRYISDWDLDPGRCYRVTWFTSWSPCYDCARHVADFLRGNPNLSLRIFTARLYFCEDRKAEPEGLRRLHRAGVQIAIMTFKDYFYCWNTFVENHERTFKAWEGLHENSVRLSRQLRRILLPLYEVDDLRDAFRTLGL
Potency is read from the fitted curve at half-maximal effect; tags tell the direction and shape of the fitted curve.

SMILES | Potency
COc1ccccc1CNC(=O)Cc1csc2nc(-c3ccccc3)cn12 | inconclusive: 14.1 µM [inhibitor, partial curve, poor fit]
COc1ccc(N(Cc2cccs2)C(=O)c2ccc(C(C)(C)C)cc2)cc1 | inconclusive: 20 µM [inhibitor, partial curve, poor fit]
Cc1nn(C)c2c1c(C(F)(F)F)cc(=O)n2CC(=O)N1CCCCC1C (stereo not drawn) | inconclusive: 89.1 µM [inhibitor, partial curve, poor fit]
CCOc1ccc2nc(NC(=O)c3noc4c3COc3ccccc3-4)sc2c1 | inactive
CCc1ccccc1N(C)C(=O)c1cn(-c2cccc(OC)c2)c(=O)c2ccccc12 | inconclusive: 100 µM [inhibitor, partial curve, poor fit]
COc1ccc(/C=C/C(=O)Nc2sc(C)c(C)c2C(=O)O)cc1 | inconclusive: 63.1 µM [inhibitor, partial curve, poor fit]
CCN(Cc1ccc(Br)s1)C(=O)Cn1nnc(-c2ccccc2)n1 | inconclusive: 79.4 µM [inhibitor, partial curve, poor fit]
Cc1nc(SCC(=O)Nc2cccc3ccccc23)oc1C | inactive
CN(Cc1ccc(F)cc1)S(=O)(=O)c1nnc(NC(=O)c2ccccc2Cl)s1 | inconclusive: 39.8 µM [inhibitor, partial curve, poor fit]
Clc1ccccc1-c1nc(-c2ccc(Br)cc2)no1 | inactive
C#CCN1C(C)=C(C(=O)OC)C(c2cccc([N+](=O)[O-])c2)C(C(=O)OCC)=C1C (stereo not drawn) | inconclusive: 35.5 µM [inhibitor, partial curve, poor fit]
Cc1cc(C)c2oc(C(=O)Nc3nnc(SCc4ccccc4F)s3)cc(=O)c2c1 | inconclusive: 35.5 µM [inhibitor, partial curve]
OCc1cc(C(O)CNCCCCCCOCCCCc2ccccc2)ccc1O (stereo not drawn) | inactive
CCc1ccc(CN2CCc3nc(Nc4ccccc4)ncc3C2)cc1 | inconclusive: 56.2 µM [inhibitor, partial curve, poor fit]
CCc1ccccc1Nc1nn2c(=O)c3ccc(C(=O)NC(C)c4ccccc4)cc3nc2s1 (stereo not drawn) | inconclusive: 25.1 µM [inhibitor, partial curve, poor fit]
Cc1nn(CC(=O)Nc2ccc3c(c2)nc(CCN2CCOCC2)n3C)c(=O)c2ccccc12 | inactive
Cc1[nH]c(=O)[nH]c(=O)c1S(=O)(=O)N1CCN(c2ccccc2Cl)CC1 | inconclusive: 22.4 µM [inhibitor, full curve, poor fit]
Cc1cccc(-n2c(Cc3ccccc3)nnc2SCc2nc(-c3cccs3)no2)c1 | inconclusive: 56.2 µM [inhibitor, partial curve, poor fit]
C=Cc1ccc(Cn2nc(-c3ccc(C)cc3)ccc2=O)cc1 | inconclusive: 44.7 µM [inhibitor, partial curve, poor fit]
Cc1ccc(S(=O)(=O)Cc2ccc(C(=O)NCCc3ccc(Cl)cc3)o2)cc1 | inconclusive: 79.4 µM [inhibitor, partial curve]
CCN(CC)C(=O)Cn1nc(-c2ccc(C)cc2)c2ccccc2c1=O | inactive

SMILES | Potency
CCCCN1C(=O)c2[nH]nc(-c3ccccc3O)c2C1c1ccc(C(C)(C)C)cc1 (stereo not drawn) | inconclusive: 39.8 µM [inhibitor, partial curve, poor fit]
CCc1nn(CCCC(=O)N2CCN(c3cc(Cl)ccc3C)CC2)c(=O)c2cc3occc3n12 | inconclusive: 25.1 µM [inhibitor, full curve, poor fit]
Cc1cc(-c2ccc(C)c(S(=O)(=O)N3CCC(C)CC3)c2)on1 | inconclusive: 56.2 µM [inhibitor, partial curve, poor fit]
CCn1c(C(=O)N2CCC(C(=O)N3CCN(c4cc(C)ccc4C)CC3)CC2)cc2sccc21 | inconclusive: 50.1 µM [inhibitor, partial curve, poor fit]
Cc1ccc(CCNC(c2ccc(F)cc2)c2nnc(-c3ccccc3Cl)o2)cc1 (stereo not drawn) | inconclusive: 35.5 µM [inhibitor, partial curve, poor fit]
COc1ccc(-n2nc3c(N4CCCC(C(=O)NCc5ccc(C)cc5)C4)nnc(C)c3c2C)cc1 (stereo not drawn) | inconclusive: 44.7 µM [inhibitor, partial curve]
CCCNC(=O)c1cnn2c(C)c(Cc3c(C)cc(C)cc3C)c(C)nc12 | active: 39.8 µM
CCN(Cc1ccccc1)S(=O)(=O)c1ccc(-c2coc(C)n2)cc1 | inconclusive: 63.1 µM [inhibitor, partial curve, poor fit]
CC(C)(C)c1ccc(OCc2nnc(-c3ccccc3)o2)cc1 | inconclusive: 17.8 µM [inhibitor, full curve, poor fit]
CCn1cc(C(=O)NCc2ccc(Cl)cc2)c(=O)c2cc(S(=O)(=O)N(C)C3CCCCC3)ccc21 | inconclusive: 20 µM [inhibitor, full curve]
O=C(CSc1nnc(-c2ccc(F)cc2)o1)N1CCCc2ccccc21 | inconclusive: 12.6 µM [inhibitor, full curve, poor fit]
Cc1ccc(NC(=O)Cc2coc3ccc(C(C)C)cc23)cc1Cl | inconclusive: 22.4 µM [inhibitor, full curve, poor fit]
Cc1ccc(N(CC(=O)Nc2ccc(Cl)cc2)S(=O)(=O)c2cccc3nonc23)cc1 | inconclusive: 39.8 µM [inhibitor, single point]
CCCn1c2ccccc2c2nnc(SCC(=O)Nc3cccc(C(C)=O)c3)nc21 | inconclusive: 35.5 µM [inhibitor, partial curve, poor fit]
CN(C)CCCN(Cc1ccc(Cl)cc1Cl)Cc1ccc(Cl)cc1Cl | inactive
COc1cc(NC(=O)Cn2cc(C(=O)c3ccc(F)cc3)c(=O)c3ccc(C)nc32)cc(OC)c1 | inconclusive: 8.91 µM [inhibitor, full curve, poor fit]
CCCn1c2ccccc2c2cnn(CC(=O)N3CCN(c4ccccc4)CC3)c(=O)c21 | inconclusive: 79.4 µM [inhibitor, single point]
O=C(CSc1nc2ccccc2nc1N1CCCC1)NCc1ccc(F)cc1 | inactive
COC(=O)COc1ccc2c(c1)O/C(=C\C1=Cc3ccccc3OC1C)C2=O (stereo not drawn) | inactive
O=C(NN=C1CCCC1)c1ccc(CSc2cccc3cccnc23)cc1 | inconclusive: 50.1 µM [inhibitor, partial curve, poor fit]
CSc1nc(Nc2ccc(F)cc2)cc(-c2ccccc2)n1 | inconclusive: 12.6 µM [inhibitor, full curve, poor fit]

SMILES | Potency
CCOc1ccc(-c2nn(-c3ccccc3)cc2C2NC(=O)NC(C)=C2C(=O)OC(C)C)cc1 (stereo not drawn) | active: 44.7 µM
O=C(CSc1nc2ccccc2o1)Nc1ccc(O)cc1 | inactive
CCn1c(=O)cc(SCC(=O)NCc2cccc(Cl)c2)c2ccccc21 | inconclusive: 56.2 µM [inhibitor, partial curve, poor fit]
COc1ccc(Cn2c(C(=O)O)c(CNC3CCCC3)c3ccc(OC)cc32)cc1 | inactive
Cc1ccc(CNC(=O)Nc2cc(C(=O)NCc3ccc(C(C)C)cc3)ccc2N2CCCC2)cc1 | inconclusive: 100 µM [inhibitor, partial curve, poor fit]
Cc1ccc2cccc(NC(=O)c3ccc(OC(C)C)cc3)c2n1 | inconclusive: 89.1 µM [inhibitor, partial curve, poor fit]
O=C(CCc1ncc(-c2ccccc2Cl)o1)N1CCN(S(=O)(=O)c2ccccc2Cl)CC1 | inactive
O=C(NCC(F)(F)F)c1ccccc1Oc1ccccc1 | inactive
O=C(O)c1ccc(COc2cccc(Cl)c2)cc1 | inactive
CCCCOc1ccc(C(=O)N(Cc2ccc(N(C)C)cc2)Cc2ccco2)cc1 | inconclusive: 50.1 µM [inhibitor, partial curve, poor fit]
CCN1CCN(CCNC(=O)c2cc3n(n2)CC(C)(C(=O)NCCC(C)C)N(C)C3=O)CC1 (stereo not drawn) | inactive
Cc1cc2ccccn2c1/C=C/C(=O)C(F)(F)F | inactive
CC(C)N(Cc1nc(-c2ccc(Cl)cc2)no1)C(=O)c1ccc(C(C)(C)C)cc1 | inconclusive: 20 µM [inhibitor, full curve, poor fit]
Cc1nc(SCc2cccc(Cl)c2)nc2c1CCCC2 | inconclusive: 39.8 µM [inhibitor, single point]
Cc1ccccc1Cn1c(SCc2ccc(C(=O)NC3CCCCC3)cc2)nc2ccncc21 | inconclusive: 56.2 µM [inhibitor, partial curve, poor fit]
O=C(CN1CCN(c2ncccn2)CC1)N1N=C(c2cc3ccccc3o2)CC1c1ccco1 (stereo not drawn) | inactive
CCC(=O)Oc1c(Sc2ccc(Cl)cc2)c(C)nn1-c1ccccc1 | inconclusive: 7.94 µM [inhibitor, full curve, poor fit]
O=C(NCCCN1CCN(c2cccc(Cl)c2)CC1)c1sc2ncccc2c1-n1cccc1 | inconclusive: 14.1 µM [inhibitor, full curve, poor fit]
CCOc1ccc(NC(=O)c2cc(S(=O)(=O)N3CCc4ccccc43)ccc2F)cc1 | inconclusive: 2.82 µM [inhibitor, full curve, poor fit]
CCCOc1cccc(CNc2ccc(F)cc2)c1 | inactive
CCN(C(=O)Cn1c(=O)n(-c2ccccc2)c(=O)c2ccc(C(=O)NCc3ccc4c(c3)OCO4)cc21)c1cccc(C)c1 | inconclusive: 79.4 µM [inhibitor, partial curve, poor fit]
